According to PubChem BioAssay AID623919 (The Scripps Research Institute Molecular Screening Center, 2012):
The source holds more than one record for some entries. Only these are listed.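 Rule for the calls: active = recombination in E. coli crosses cut more than 4-fold against the solvent-only control; inactive = cut of 4-fold or less.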 There may be further records. Values given together are repeated measurements in other runs, samples, wells, individuals or studies. Marks in square brackets tell the records apart. The letters are not those of the source and start again with each entry.

Tested on: E. coli V66 Hfr conjugational recombination, colony counts
Experiment: RecBCD-driven recombination inhibition in E. coli, late-stage follow-up, counter-screen for AddAB inhibitor project, V66 E. coli, colony formation, powder samples, 100 µM (AID 623919)
Conditions: at 100 µM; stronger effect = higher value
How it was run: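 Assay system: E. coli V66 recipient with Hfr donor. Times: 1 h compound exposure plus 30 min mating. Detection: differential plating colony counts. Replicates: duplicates.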

CCn1cc(C(=O)O)c(=O)c2cnc(N3CCN(C(=S)Nc4ccccc4C(F)(F)F)CC3)nc21
fold reduction of recombination: 6 [sample A] and inactive: 1 [sample B]
